# Reference: PubChem BioAssay (NCATS)
# The inconclusive results got no clear call from the source; some entries with a clear call stand among them for comparison. For some of these results: Where the call is inconclusive, the potency comes from a doubtful curve fit. Calls of active or inactive are those of the source. Unless noted, the call rests on the fitted dose curve; in most records, active means well fitted curve in the direction sought with a large enough effect; inconclusive means small, poorly fitted or top-dose-only effect, or another doubt; inactive means no such curve, though single readings can be large; an effect the other way counts as inactive or inconclusive.
# Legend:
# [1] = molecular target: Flap endonuclease 1 (Homo sapiens) (UniProt P39748); assay: qHTS Assay for the Inhibitors of FEN1: Confirmatory Assay for Cherry-picked Compounds (AID 720498); conditions: FEN1 flap cleavage, TAMRA/BHQ2 fluorogenic DNA substrate; further: potency means the concentration at half of the fitted maximal effect; nearly all actives have a fitted effect of over 60% in size
# Chain of UniProt P39748 (P39748 whole entry, looked up): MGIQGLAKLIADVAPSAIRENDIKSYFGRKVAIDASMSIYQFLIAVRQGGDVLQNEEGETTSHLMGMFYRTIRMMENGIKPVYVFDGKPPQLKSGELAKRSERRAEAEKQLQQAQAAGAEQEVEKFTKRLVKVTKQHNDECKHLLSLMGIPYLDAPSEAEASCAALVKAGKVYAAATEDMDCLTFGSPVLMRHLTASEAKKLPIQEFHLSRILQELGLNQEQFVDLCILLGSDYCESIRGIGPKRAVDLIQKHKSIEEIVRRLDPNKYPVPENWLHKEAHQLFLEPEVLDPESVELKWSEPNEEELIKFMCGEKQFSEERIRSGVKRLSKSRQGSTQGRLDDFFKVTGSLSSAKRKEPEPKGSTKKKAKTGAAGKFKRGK
# Summary of the method: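 Human FEN1 (10 nM reagent) was preincubated with compounds for 15 min at room temperature, then 50 nM final double-flap DNA substrate (5'-TAMRA flap, BHQ-2 quencher strand) was added. Fluorescence (ex 525/em 598 nm) was read at 0 and 15 min.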
# [2] = qHTS for Inhibitors of WRN Helicase: Thiazole Orange DNA Binding Counterscreen (AID 720499);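 further: drop in dye fluorescence marks compound binding to DNA; on the % scale 0 is the no-effect control and ±100 the full control effect; nearly all actives have a fitted effect of over 60% in size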
# Summary of the method: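 Dye-displacement counterscreen: 50 nM DNA + 100 nM ThO, cpd added by pintool, 15 min RT, fluorescence ex 480/em 530 nm.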
# [3] = molecular target: DNA polymerase eta (Homo sapiens) (UniProt Q9Y253); assay: qHTS for Inhibitors of Polymerase Eta: Confirmatory Assay for Cherry-picked Compounds (AID 720502); conditions: Pol eta primer extension, TAMRA/BHQ fluorescence, 10 min; further: potency means the concentration at half of the fitted maximal effect
# Chain of UniProt Q9Y253 (Q9Y253 whole entry, looked up): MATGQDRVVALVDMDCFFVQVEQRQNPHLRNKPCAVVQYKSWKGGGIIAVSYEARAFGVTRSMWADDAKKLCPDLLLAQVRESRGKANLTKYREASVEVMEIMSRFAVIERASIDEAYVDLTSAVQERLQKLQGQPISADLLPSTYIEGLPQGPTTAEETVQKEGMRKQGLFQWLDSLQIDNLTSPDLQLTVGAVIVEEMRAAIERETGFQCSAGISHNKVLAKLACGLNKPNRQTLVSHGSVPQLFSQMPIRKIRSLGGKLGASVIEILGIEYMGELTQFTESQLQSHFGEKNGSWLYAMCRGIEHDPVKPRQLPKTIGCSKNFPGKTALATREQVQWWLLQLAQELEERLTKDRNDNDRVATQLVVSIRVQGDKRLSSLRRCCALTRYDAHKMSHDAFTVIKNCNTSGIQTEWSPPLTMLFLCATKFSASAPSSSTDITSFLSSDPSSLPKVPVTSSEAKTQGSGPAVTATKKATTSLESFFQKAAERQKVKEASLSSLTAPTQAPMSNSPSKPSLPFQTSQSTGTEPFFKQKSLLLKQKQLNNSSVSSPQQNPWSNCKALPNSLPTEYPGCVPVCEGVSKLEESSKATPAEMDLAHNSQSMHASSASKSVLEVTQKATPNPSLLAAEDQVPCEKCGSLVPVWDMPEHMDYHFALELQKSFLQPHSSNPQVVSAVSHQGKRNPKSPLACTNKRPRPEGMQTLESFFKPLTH
# Summary of the method: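 Readout: TAMRA dequenching, ex 525/em 598 nm, read at 0 and 10 min. Enzyme: 10 nM human Pol eta, preincubated with compound 15 min RT. Substrate: 50 nM final annealed primer/reporter/template duplex.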
# [4] = molecular target: 3',5'-cyclic-AMP phosphodiesterase 4B (Homo sapiens) (UniProt Q07343); assay: qHTS Assay for Inhibitors of PDE-IV (AID 607; active means well fitted activation curve with a large enough effect in the main read-out, with a control signal flat, not every such curve was filed as active; inconclusive means small, poorly fitted or top-dose-only effect, or effect the other way, or a change in a side signal; further: potency means the concentration at half of the fitted maximal effect; on activation (PDE inhibition): % of control where 0% means no effect); conditions: HEK293 ACTOne CNG channel cells, membrane potential fluorescence; activation (PDE inhibition): at 22.9 µM (top of the series)
# Chain of UniProt Q07343 (Q07343 whole entry, looked up): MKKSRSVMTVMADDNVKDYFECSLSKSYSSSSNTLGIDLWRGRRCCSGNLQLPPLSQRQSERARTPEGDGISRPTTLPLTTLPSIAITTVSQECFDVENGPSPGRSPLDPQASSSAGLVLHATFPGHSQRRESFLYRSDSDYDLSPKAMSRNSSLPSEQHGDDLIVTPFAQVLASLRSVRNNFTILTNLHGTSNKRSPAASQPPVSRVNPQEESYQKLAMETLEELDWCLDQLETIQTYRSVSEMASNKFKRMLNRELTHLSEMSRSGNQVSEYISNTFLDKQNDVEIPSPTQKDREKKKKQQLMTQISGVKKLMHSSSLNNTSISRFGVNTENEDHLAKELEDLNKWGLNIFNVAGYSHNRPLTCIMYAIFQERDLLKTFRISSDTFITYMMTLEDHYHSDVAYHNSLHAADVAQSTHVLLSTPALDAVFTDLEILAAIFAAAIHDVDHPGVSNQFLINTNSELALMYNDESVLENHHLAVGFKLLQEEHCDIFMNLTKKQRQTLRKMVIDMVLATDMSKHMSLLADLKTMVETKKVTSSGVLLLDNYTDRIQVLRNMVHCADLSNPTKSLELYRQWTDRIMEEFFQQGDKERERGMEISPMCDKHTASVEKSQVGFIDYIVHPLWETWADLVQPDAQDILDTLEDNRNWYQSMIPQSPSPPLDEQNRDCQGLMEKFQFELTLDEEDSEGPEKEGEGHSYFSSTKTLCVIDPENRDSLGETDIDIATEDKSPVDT
# Summary of the method: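 ACTOne HEK293 cells carry a modified cAMP-gated CNG channel and express endogenous PDE4; plated 1000 cells/well, compounds up to 22.9 uM final. Membrane-potential dye fluorescence (ex 535/em 590) was read; parental cells received 10 uM forskolin + 100 uM RO 20-1724.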
# [5] = molecular target: Cytochrome P450 3A4 (Homo sapiens) (UniProt P08684); assay: qHTS Assay for Inhibitors and Substrates of Cytochrome P450 3A4 (AID 884); further: potency means the concentration at half of the fitted maximal effect; nearly all actives have a fitted effect of over 50% in size
# Chain of UniProt P08684 (P08684 whole entry, looked up): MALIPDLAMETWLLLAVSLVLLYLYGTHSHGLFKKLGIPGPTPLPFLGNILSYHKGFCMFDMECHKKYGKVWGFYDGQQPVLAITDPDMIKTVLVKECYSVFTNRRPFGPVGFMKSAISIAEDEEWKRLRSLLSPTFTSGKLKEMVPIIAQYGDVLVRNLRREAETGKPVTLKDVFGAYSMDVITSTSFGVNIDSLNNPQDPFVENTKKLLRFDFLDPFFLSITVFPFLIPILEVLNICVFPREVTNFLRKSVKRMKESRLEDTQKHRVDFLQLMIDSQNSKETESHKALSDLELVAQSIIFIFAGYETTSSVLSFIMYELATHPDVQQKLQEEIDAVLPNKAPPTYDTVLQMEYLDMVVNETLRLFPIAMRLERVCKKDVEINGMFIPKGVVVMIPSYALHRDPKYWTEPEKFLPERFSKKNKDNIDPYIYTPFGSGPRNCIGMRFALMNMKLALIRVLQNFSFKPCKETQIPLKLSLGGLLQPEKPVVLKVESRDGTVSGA
# Summary of the method: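 Luminescent readout of luciferin produced by CYP3A4 (20 nM) dealkylation of Luciferin-PPXE, 25 uM (its KM). NADPH-driven reaction ran 60 min at RT after 10 min compound preincubation; data scaled to 57 uM ketoconazole as 100% inhibition.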
# [6] = molecular target: Cytochrome P450 2D6 (Homo sapiens) (UniProt P10635); assay: qHTS Assay for Inhibitors and Substrates of Cytochrome P450 2D6 (AID 891);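 further: luciferin methyl ether substrate demethylated by CYP2D6 with NADPH regeneration; nearly all actives have a fitted effect of over 60% in size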; further: potency means the concentration at half of the fitted maximal effect; on activity change, negative = inhibition: top concentration of the series differs between compounds; on the % scale 0 is the no-effect control and ±100 the full control effect
# Chain of UniProt P10635 (P10635 whole entry, looked up): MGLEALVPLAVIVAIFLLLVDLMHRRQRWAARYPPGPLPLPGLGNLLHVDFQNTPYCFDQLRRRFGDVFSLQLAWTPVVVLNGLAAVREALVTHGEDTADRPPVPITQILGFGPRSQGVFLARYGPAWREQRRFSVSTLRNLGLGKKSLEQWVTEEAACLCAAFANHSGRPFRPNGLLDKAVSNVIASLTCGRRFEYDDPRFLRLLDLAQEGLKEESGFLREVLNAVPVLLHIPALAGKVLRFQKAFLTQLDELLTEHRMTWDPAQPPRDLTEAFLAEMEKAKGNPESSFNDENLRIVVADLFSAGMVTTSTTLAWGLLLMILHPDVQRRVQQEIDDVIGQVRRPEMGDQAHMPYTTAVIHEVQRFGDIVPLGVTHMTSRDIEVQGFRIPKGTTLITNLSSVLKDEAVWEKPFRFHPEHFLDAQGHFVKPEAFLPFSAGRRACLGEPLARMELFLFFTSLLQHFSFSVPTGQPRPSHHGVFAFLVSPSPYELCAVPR
# Summary of the method: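 Luminescent read-out of luciferin formed by 5 nM human CYP2D6 demethylating 30 uM Luciferin-ME EGE (Km level) over 60 min at room temperature after NADPH regeneration addition. Data normalized to full inhibition by 1.43 uM quinidine.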
# [7] = S16 Schwann cell viability assay (CellTiter-Glo assay) (AID 624031); conditions: S16 rat Schwann cells viability, 24 h;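 further: cellular ATP luminescence as a viability measure; potency means the concentration at half of the fitted maximal effect; nearly all actives have a fitted effect of over 70% in size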
# Summary of the method: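 Native S16 rat Schwann cells, 500-750 cells/well in DMEM with 10% FBS, dosed with compound after overnight culture and incubated 24h at 37 degree Celsius/5% CO2. Viability by CellTiter-Glo luminescence; % activity normalized to no-cell wells and DMSO-treated cells.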
# [8] = molecular target: Cytochrome P450 2C9 (Homo sapiens) (UniProt P11712); assay: qHTS Assay for Inhibitors and Substrates of Cytochrome P450 2C9 (AID 883); conditions: recombinant CYP2C9, luciferin-H luminescence, 60 min; activity change, negative = inhibition: at 57.1 µM (top of the series); further: nearly all actives have a fitted effect of over 60% in size; further: potency means the concentration at half of the fitted maximal effect; on activity change, negative = inhibition: on the % scale 0 is the no-effect control and ±100 the full control effect
# Chain of UniProt P11712 (P11712 whole entry, looked up): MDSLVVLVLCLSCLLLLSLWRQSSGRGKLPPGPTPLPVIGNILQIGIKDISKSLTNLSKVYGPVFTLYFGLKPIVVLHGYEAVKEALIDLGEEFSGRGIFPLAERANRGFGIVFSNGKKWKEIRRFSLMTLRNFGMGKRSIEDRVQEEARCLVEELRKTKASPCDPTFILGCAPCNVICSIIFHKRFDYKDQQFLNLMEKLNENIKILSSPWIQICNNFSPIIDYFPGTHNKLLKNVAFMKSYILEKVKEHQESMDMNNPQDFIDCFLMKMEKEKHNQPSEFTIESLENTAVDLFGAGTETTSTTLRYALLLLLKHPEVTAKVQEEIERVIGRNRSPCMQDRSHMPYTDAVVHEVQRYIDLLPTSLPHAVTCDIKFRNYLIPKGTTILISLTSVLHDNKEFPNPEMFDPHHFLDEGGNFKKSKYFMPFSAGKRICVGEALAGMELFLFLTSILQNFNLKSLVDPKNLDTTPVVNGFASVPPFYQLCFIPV
# Summary of the method: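 10nM CYP2C9 + 100uM Luciferin-H (=KM), 25mM KPO4; cpd 10 min 37C; NADPH regen, 60 min 37C; stop/detect with P450 Glo-Buffer 20 min; luminescence. Norm. to 57uM sulphaphenazole as full inhibition.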
# [9] = qHTS Assay for Identification of Small Molecule Antagonists for NFkB Signaling Pathway (AID 895; active means well fitted inhibition curve with a large enough effect in the signal ratio, with a control signal flat, not every such curve was filed as active; inconclusive means small, poorly fitted or top-dose-only effect, or effect the other way, or a change in a side signal; the % refers to the signal ratio; further: on the % scale 0 is the no-effect control and ±100 the full control effect); conditions: NFkB beta-lactamase reporter cells, FRET ratio 460/530; Potency: stimulated with 10 pM TNF alpha unless noted; activity change, negative = inhibition: at 38.3 µM (top of the series) unless noted
# Summary of the method: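 ME-180 NFkB-bla cells (beta-lactamase under NFkB response element), plated overnight, treated with compound then 10 pM TNF alpha (about EC50) for 5 hrs at 37 C. LiveBLAzer FRET read at 460/530 nm emission, 405 nm excitation.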
# [10] = qHTS Assay for Identification of Small Molecule Agonists for Thrombopoietin (TPO) Signaling Pathway (AID 917); conditions: TPO signaling pathway reporter cells, agonist qHTS; Potency: stimulated with TPO at its EC50 unless noted; activity, positive = activation: at 38.5 µM (top of the series) unless noted; further: potency means the concentration at half of the fitted maximal effect
# Summary of the method: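 Ba/F3 (mouse) + hTPO receptor + GpIIb-promoter luciferase; IL-3 withdrawn overnight; compound + 26 pM TPO (EC50), 24 hrs, 37 C, 5% CO2; Steadylite luminescence, 10 min RT.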
# [11] = molecular target: Muscarinic acetylcholine receptor M1 (Rattus norvegicus) (UniProt P08482); assay: qHTS Assay for Antagonists of Acetylcholine Muscarinic M1 Receptor: Measurement of IP-One Response (AID 944); further: nearly all actives have a fitted effect of over 75% in size
# [12] = molecular target: Pyruvate kinase PKM (Homo sapiens) (UniProt P14618); assay: qHTS Assay for Inhibitors of Human Muscle Pyruvate Kinase (AID 958); conditions: purified human PKM enzyme activity
# Chain of UniProt P14618 (P14618 whole entry, looked up): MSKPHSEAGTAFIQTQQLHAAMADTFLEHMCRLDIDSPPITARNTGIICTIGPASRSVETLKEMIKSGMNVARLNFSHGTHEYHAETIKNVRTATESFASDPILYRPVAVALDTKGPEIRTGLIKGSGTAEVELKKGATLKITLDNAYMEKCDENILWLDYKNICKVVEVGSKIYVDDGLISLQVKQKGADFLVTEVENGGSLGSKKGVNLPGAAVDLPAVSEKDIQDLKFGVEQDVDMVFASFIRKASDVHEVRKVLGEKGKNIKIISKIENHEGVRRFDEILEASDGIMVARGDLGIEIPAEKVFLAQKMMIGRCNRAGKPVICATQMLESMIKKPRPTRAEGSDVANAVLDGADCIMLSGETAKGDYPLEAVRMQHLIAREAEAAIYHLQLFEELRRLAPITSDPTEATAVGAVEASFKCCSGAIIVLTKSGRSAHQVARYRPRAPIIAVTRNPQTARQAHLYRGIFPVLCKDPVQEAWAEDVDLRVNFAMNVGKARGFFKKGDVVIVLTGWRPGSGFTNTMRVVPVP
# Summary of the method: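 PKM2, human, >95% pure, 0.1 nM; PEP 0.5 mM (Km), ADP 0.1 mM; 50 mM imidazole pH 7.2, 50 mM KCl, 0.01% Tween 20, 0.05% BSA; 1 h RT; luciferase luminescence readout.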
# [13] = molecular target: Luciferin 4-monooxygenase (Photinus pyralis) (UniProt P08659); assay: Biochemical firefly luciferase enzyme assay for NPC (AID 624030); further: nearly all actives have a fitted effect of over 70% in size; further: potency means the concentration at half of the fitted maximal effect;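 on activity change, negative = inhibition: purified P. pyralis luciferase at 10 nM with luciferin and ATP substrate; 0% = DMSO and -100% = full luciferase inhibition by PTC124 control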
# Chain of UniProt P08659 (P08659 whole entry, looked up): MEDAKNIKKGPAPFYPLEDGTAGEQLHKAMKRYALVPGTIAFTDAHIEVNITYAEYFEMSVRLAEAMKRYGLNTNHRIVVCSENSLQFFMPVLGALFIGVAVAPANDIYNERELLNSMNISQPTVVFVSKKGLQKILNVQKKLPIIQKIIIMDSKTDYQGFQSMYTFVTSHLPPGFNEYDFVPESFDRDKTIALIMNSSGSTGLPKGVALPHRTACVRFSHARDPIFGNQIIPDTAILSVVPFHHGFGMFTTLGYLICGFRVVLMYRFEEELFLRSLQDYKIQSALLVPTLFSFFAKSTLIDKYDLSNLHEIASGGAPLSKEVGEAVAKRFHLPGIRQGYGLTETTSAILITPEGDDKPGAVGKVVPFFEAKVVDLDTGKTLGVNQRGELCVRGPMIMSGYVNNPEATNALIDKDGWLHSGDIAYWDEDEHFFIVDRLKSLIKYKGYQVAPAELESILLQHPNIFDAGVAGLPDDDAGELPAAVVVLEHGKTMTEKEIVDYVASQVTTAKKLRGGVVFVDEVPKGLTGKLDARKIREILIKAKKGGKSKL
# Summary of the method: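 Purified P. pyralis luciferase at 10 nM in 50 mM Tris Acetate (final), luminescence read within 5 minutes of enzyme addition to compounds. Activity normalised to PTC124 versus DMSO; concentration-response curves classed by r2, magnitude and activity.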
# [14] = Cell Viability - LYMP2-003 (AID 965);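 further: potency means the concentration at half of the fitted maximal effect; cells exposed to compounds for 24 h before reading; nearly all actives have a fitted effect of over 50% in size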
# Summary of the method: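 CellTiter-Glo luminescence (cellular ATP) after 24 h compound exposure at 37 C in complete medium; 2500 cells/well, 5 h settling beforehand. Concentration-response fitted to standard Hill equation for AC50. Tetraoctylammonium bromide served as positive control.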
# [15] = S16 Schwann cell PMP22 intronic element firefly luciferase assay (AID 624032); further: nearly all actives have a fitted effect of over 30% in size; further: potency means the concentration at half of the fitted maximal effect;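 on activity change, negative = inhibition: plate controls were DMSO for no effect and PTC124 positive control mean for full effect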
# Summary of the method: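 Rat S16 Schwann cells stably carrying firefly luciferase driven by a PMP22 intronic element, in 10% FBS, treated 24 h at 37 C. ONE-Glo luminescence normalized to PTC124 control and DMSO (0%); curves classed by r2, magnitude and activity.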
# [16] = qHTS assay for small molecule agonists of the antioxidant response element (ARE) signaling pathway (AID 651741; active means well fitted activation curve with a large enough effect in the signal ratio; inconclusive means small, poorly fitted or top-dose-only effect, or effect the other way, or a change in a side signal; the % refers to the signal ratio; further: potency means the concentration at half of the fitted maximal effect); conditions: HepG2 ARE-bla reporter, beta-lactamase FRET ratio, 16 h; activation: at 96 µM (top of the series) unless noted
# Summary of the method: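 Stably integrated ARE-beta-lactamase reporter HepG2 cells; 16 h compound incubation, 37 C; LiveBLAzer FRET substrate 2 h at room temperature; fluorescence intensity.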
# [17] = qHTS assay for small molecule agonists of the antioxidant response element (ARE) signaling pathway measured by Nrf2-dependant transcriptional activity (AID 720636; active means well fitted curve in the direction sought with a large enough effect in the repeat runs; inconclusive means weak or mixed curves; inactive means no such curve, though single readings can be large; an effect the other way counts as inactive or inconclusive; further: potency means the concentration at half of the fitted maximal effect)
# Summary of the method: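 ARE-luc HepG2 cells carrying an Nrf2-responsive luciferase reporter, in medium with 1% dialyzed FBS, exposed to compound for 16 hr at 37 C, 5% CO2. Luminescence read 30 min after ONE-Glo addition.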
# [18] = molecular target: Cytochrome P450 3A4 (Homo sapiens) (UniProt P08684); assay: qHTS Assay for Activators of Cytochrome P450 3A4 (AID 885); further: potency means the concentration at half of the fitted maximal effect; nearly all actives have a fitted effect of over 65% in size
# Summary of the method: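 CYP3A4 activity: Luciferin-PPXE O-dealkylation, 25uM substrate, 200mM KPO4, RT throughout. Read-out is luciferase luminescence; higher values reflect activation.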
# [19] = molecular target: Cytochrome P450 2C19 (Homo sapiens) (UniProt P33261); assay: qHTS Assay for Inhibitors and Substrates of Cytochrome P450 2C19 (AID 899)
# Chain of UniProt P33261 (P33261 whole entry, looked up): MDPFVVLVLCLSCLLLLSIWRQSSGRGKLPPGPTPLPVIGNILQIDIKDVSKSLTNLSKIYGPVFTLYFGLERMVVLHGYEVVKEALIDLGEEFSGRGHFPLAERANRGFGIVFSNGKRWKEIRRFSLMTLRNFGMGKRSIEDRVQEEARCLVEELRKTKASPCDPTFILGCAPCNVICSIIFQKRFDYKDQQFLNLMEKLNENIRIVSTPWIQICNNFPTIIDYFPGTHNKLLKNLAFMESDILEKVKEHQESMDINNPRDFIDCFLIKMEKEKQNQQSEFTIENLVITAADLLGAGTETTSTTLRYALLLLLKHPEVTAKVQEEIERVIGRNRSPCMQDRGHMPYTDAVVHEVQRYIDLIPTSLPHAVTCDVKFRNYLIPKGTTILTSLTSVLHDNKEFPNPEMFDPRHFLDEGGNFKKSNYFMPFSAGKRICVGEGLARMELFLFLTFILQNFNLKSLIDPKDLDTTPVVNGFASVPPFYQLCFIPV
# Summary of the method: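 Luminescent read-out of luciferin formed from Luciferin-H EGE (10uM, equal to KM). Enzyme 5nM in 50mM KPO4; compound added, 10 min at 37C, then NADPH regenerating system for 60 min at 37C. Full inhibition defined by 57uM ketoconazole.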
# [20] = qHTS Assay for Identification of Small Molecule Antagonists for Thrombopoietin (TPO) Signaling Pathway (AID 918); conditions: TPO-dependent cell signaling reporter, antagonist mode; activity change, negative = inhibition: at 38.5 µM (top of the series); further: nearly all actives have a fitted effect of over 60% in size
# Summary of the method: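 Inhibitors of TPO signaling are sought by stimulating IL-3-starved murine Ba/F3 cells (human TPO receptor, Glycoprotein IIb-driven luciferase) with TPO at its EC50 of 26 pM alongside compound. After 24 hrs at 37 C, reporter luminescence is measured.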
# Tags describe the fitted curve by direction and shape.
compound,measurement,setting,value
O=C1NC(=O)N(c2ccccc2)C(=O)/C1=C/c1ccc([N+](=O)[O-])s1,Potency,[1],active: 19 µM
O=C(O)CCn1cc(C=C2C(=O)NC(=S)NC2=O)c(-c2cccc(Br)c2)n1,Potency,[2],inactive
O=[N+]([O-])c1ccc(Sc2nc3ccccc3o2)c([N+](=O)[O-])c1,Potency,[3],"inconclusive: 84.9 µM [inhibitor, single point]"
O=C1NC(=O)N(CCC2=CCCCC2)C(=O)/C1=C\c1cccs1,Potency,[3],"inconclusive: 84.9 µM [inhibitor, single point]"
O=P(c1ccccc1)(c1ccccc1)N1CC2(CC2)CC(O)(c2ccccc2)C1 (configuration not stated),Potency,[4],"inconclusive: 6.31 µM [rising, partial curve]"
O=C(Nc1cccc(F)c1)N1CC[C@@]2(CCCN(C(=O)Oc3ccccc3)C2)C1,Potency,[4],"inconclusive: 7.94 µM [activator, single point]"
same,Potency,[5],"inconclusive: 5.01 µM [inhibitor, partial curve]"
C[C@@H]1O[C@H](O[C@@H]2C[C@@H](O)[C@]3(CO)[C@H]4[C@H](O)C[C@]5(C)[C@@H](C6=CC(=O)OC6)CC[C@@]5(O)[C@@H]4CC[C@]3(O)C2)[C@@H](O)[C@H](O)[C@H]1O,Potency,[4],"inconclusive: 0.755 µM [activator, partial curve]"
C[C@H]1C(=O)O[C@H]2CCN3CC=C(COC(=O)[C@](C)(O)[C@@]1(C)O)[C@H]23,Potency,[4],"inconclusive: 19 µM [inhibitor, single point]"
same,Potency,[6],inactive
C=CCN1CC(C(=O)N(CCCN(C)C)C(=O)NCC)CC2c3cccc4[nH]cc(c34)CC21 (configuration not stated),Potency,[7],"inconclusive: 40.5 µM [cytotoxic, single point]"
CC(C)c1ccc(C(O)(C(=O)O)c2ccc(C(C)C)cc2)cc1,Potency,[4],inactive
same,Potency,[8],"inconclusive: 3.98 µM [inhibitor, single point]"
Oc1ccc2c3c1O[C@@H]1[C@@H](O)CC[C@]4(O)[C@H](C2)N(CC2CCC2)CC[C@@]314,Potency,[4],inactive
same,Potency,[9],inactive
same,Potency,[10],"inconclusive: 3.98 µM [inhibitor, partial curve] [setting not given]"
same,Potency,[11],inactive
same,Potency,[12],"inconclusive: 0.0079 µM [inhibitor, full curve]"
Cc1ccc2c(n1)Oc1ccc(C(C)C(=O)OCC(=O)N(C)C)cc1C2 (configuration not stated),Potency,[13],active: 14.4 µM
CC(C)NC[C@H](O)c1ccc(N)c(C#N)c1,Potency,[4],"inconclusive: 19 µM [inhibitor, single point]"
[O-][N+](=Nc1ccccc1)c1ccccc1,Potency,[14],"inconclusive: 79.4 µM [rising, single point]"
same,Potency,[13],active: 12.8 µM
same,Potency,[15],inactive
same,Potency,[16],active: 37.6 µM
same,Potency,[17],"inconclusive: 23.7 µM [activator, partial curve, poor fit]"
N#Cc1cccc(NC(=O)N2CC3(CCN(C(=O)Oc4ccccc4)CC3)C2)c1,Potency,[4],inactive
same,Potency,[18],"inconclusive: 7.94 µM [activator, partial curve]"
c1cncc([C@H]2CCCCN2)c1,Potency,[4],inactive
O=c1cccc2n1C[C@H]1C[C@@H]2CN(CCO)C1,Potency,[4],inactive
same,Potency,[8],inactive
same,Potency,[6],inactive
N#Cc1ccc(CN2CC3(CCNCC3)C2)cc1,Potency,[4],inactive
C[C@]12CC[C@@H]3c4ccc(OC(=O)N(CCCl)CCCl)cc4CC[C@@H]3[C@H]1CC[C@@H]2OP(=O)(O)O,Potency,[13],"inconclusive: 7.21 µM [inhibitor, full curve]"
CCCC[C@@H]1C[C@H]1C(NP(=O)(c1ccccc1)c1ccccc1)c1ccc(Cl)cc1 (some centres not stated),Potency,[4],"inconclusive: 6.31 µM [rising, partial curve]"
CCN1C[C@@]2(C)CC[C@H](O)[C@@]34[C@@H]5C[C@H]6[C@H](O)[C@@H]5[C@](O)(C[C@@H]6OC)[C@H](C[C@@H]23)[C@H]14,Potency,[4],"inconclusive: 19 µM [inhibitor, single point]"
same,Potency,[6],inactive
CNC1=CN(O)C(c2ccccc2)=c2cc(Cl)ccc2=N1,Potency,[13],inactive
same,Potency,[15],"inconclusive: 5.1 µM [inhibitor, partial curve]"
C/C=C1\C[C@H](C)[C@](O)(CO)C(=O)OCC2=CCN3CC[C@@H](OC1=O)[C@@H]23,Potency,[4],"inconclusive: 19 µM [inhibitor, single point]"
same,Potency,[8],inactive
CCNC(=O)[C@@H]1O[C@@H](n2cnc3c(N)ncnc32)[C@@H](O)[C@H]1O,Potency,[4],"inconclusive: 5.01 µM [rising, partial curve]"
same,Potency,[9],inactive
same,Potency,[19],inactive
same,"activity change, negative = inhibition",[20],inconclusive: -28.9% [phenotype inactive]
O=[As](O)(O)c1ccc2nc3cc([As](=O)(O)O)ccc3nc2c1,Potency,[4],inactive
C[C@@H](O)CN(CCN(C[C@@H](C)O)C[C@@H](C)O)C[C@@H](C)O.O=[N+]([O-])O.[Cu],Potency,[4],inactive
same,Potency,[6],"inconclusive: 3.98 µM [inhibitor, partial curve]"
c1csc(CN2CC3(CCNCC3)C2)n1,Potency,[4],inactive
C[C@@]12CC[C@H](O)C[C@@H]1CC[C@H]1[C@H]2C[C@@H](O)[C@]2(C)[C@@H](C3=CC(=O)OC3)CC[C@@]12O,Potency,[4],"inconclusive: 0.12 µM [rising, full curve]"
same,Potency,[6],inactive
C[C@H]1CC[C@]2(NC1)O[C@@H]1C[C@@H]3[C@@H]4CC=C5C[C@H](O)CC[C@@]5(C)[C@H]4CC[C@@]3(C)[C@H]1[C@@H]2C,Potency,[4],"inconclusive: 15.1 µM [inhibitor, single point]"
same,Potency,[8],inactive
